Results from the GPR68 mutational scans of Howard et al. (2025).
Scores with a large standard error are left out. Two further conditions of the source, in which the scores hardly spread, are not listed. Read del as a deletion of the residues named and ins as an insertion between two positions. For some of these results: How much ogerin was present is not stated here.

B1: GPR68, Q15743 (parent)
chain: MGNITADNSSMSCTIDHTIHQTLAPVVYVTVLVVGFPANCLSLYFGYLQIKARNELGVYLCNLTVADLFYICSLPFWLQYVLQHDNWSHGDLSCQVCGILLYENIYISVGFLCCISVDRYLAVAHPFRFHQFRTLKAAVGVSVVIWAKELLTSIYFLMHEEVIEDENQHRVCFEHYPIQAWQRAINYYRFLVGFLFPICLLLASYQGILRAVRRSHGTQKSRKDQIQRLVLSTVVIFLACFLPYHVLLLVRSVWEASCDFAKGVFNAYHFSLLLTSFNCVADPVLYCFVSETTHRDLARLRGACLAFLTCSRTGRAREAYPLGAPEASGKSGAQGEEPELLTKLHPAFQTPNSPGSGGFPTGRLA

Columns and labels:
[1] = variants of: B1; assay: cAMP reporter score (Enrich2 score, wild type = 0); higher = more signal; HEK293T, FACS bins
[2] = variants of: B1; assay: surface expression score (Enrich2 score, wild type = 0); higher = more signal; HEK293T, FACS bins

For MGNITADNSSMSCTIDHTIHQTLAPVVYVTVLVVGFPANCLSLYFGYLQIKARNELGVYLCNLTVADLFYICSLPFWLQYVLQHDNWSHGDLSCQVCGILLYENIYISVGFLCCISVDRYLAVAHPFRFHQFRTLKAAVGVSVVIWAKELLTSIYFLMHEEVIEDENQHRVCFEHYPIQAWQRAINYYRFLVGFLFPICLLLASYQGILRAVRRSHGTQKSRKDQIQRLVLSTVVGFLACFLPYHVLLLVRSVWEASCDFAKGVFNAYHFSLLLTSFNCVADPVLYCFVSETTHRDLARLRGACLAFLTCSRTGRAREAYPLGAPEASGKSGAQGEEPELLTKLHPAFQTPNSPGSGGFPTGRLA [I236G], the cAMP reporter score ([1]; pH 5.5) was -1.34, the cAMP reporter score ([1]; pH 6, modulator: ogerin) was 0.097 and the cAMP reporter score ([1]; pH 6.5, modulator: ogerin) was -0.271. For the same variant, the surface expression score [2] was -1.61.

With MGNITADNSSMSCTIDHTIHQTLAPVVYVTVLVVGFPANCLSLYFGYLQIKARNELGVYLCNLTVADLFYICSLPFWLQYVLQHDNWSHGDLSCQVCGILLYENIYISVGFLCCISVDRYLAVAHPFRFHQFRTLKAAVGVSVVIWAKELLTSIYFLMHEEVIEDENQHRVCFEHYPIQAWQRAINYYRFLVGFLFPICLLLASYQGILRAVRRSHGTQKSRKDQIQRLVLSTVVKFLACFLPYHVLLLVRSVWEASCDFAKGVFNAYHFSLLLTSFNCVADPVLYCFVSETTHRDLARLRGACLAFLTCSRTGRAREAYPLGAPEASGKSGAQGEEPELLTKLHPAFQTPNSPGSGGFPTGRLA [I236K] the cAMP reporter score ([1]; pH 5.5) was -1.29, the cAMP reporter score ([1]; pH 6, modulator: ogerin) was -2.62 and the cAMP reporter score ([1]; pH 6.5, modulator: ogerin) was -1.5. For the same variant, the surface expression score [2] was -1.4.

Variant MGNITADNSSMSCTIDHTIHQTLAPVVYVTVLVVGFPANCLSLYFGYLQIKARNELGVYLCNLTVADLFYICSLPFWLQYVLQHDNWSHGDLSCQVCGILLYENIYISVGFLCCISVDRYLAVAHPFRFHQFRTLKAAVGVSVVIWAKELLTSIYFLMHEEVIEDENQHRVCFEHYPIQAWQRAINYYRFLVGFLFPICLLLASYQGILRAVRRSHGTQKSRKDQIQRLVLSTVVHFLACFLPYHVLLLVRSVWEASCDFAKGVFNAYHFSLLLTSFNCVADPVLYCFVSETTHRDLARLRGACLAFLTCSRTGRAREAYPLGAPEASGKSGAQGEEPELLTKLHPAFQTPNSPGSGGFPTGRLA [I236H] has a cAMP reporter score ([1]; pH 5.5) of -0.482 and a cAMP reporter score ([1]; pH 6, modulator: ogerin) of -1.47.
